Data set [1] concerns the target endogenous Claspin of Xenopus egg extract.

endogenous Claspin of Xenopus egg extract, sequence (chain, as listed by the source): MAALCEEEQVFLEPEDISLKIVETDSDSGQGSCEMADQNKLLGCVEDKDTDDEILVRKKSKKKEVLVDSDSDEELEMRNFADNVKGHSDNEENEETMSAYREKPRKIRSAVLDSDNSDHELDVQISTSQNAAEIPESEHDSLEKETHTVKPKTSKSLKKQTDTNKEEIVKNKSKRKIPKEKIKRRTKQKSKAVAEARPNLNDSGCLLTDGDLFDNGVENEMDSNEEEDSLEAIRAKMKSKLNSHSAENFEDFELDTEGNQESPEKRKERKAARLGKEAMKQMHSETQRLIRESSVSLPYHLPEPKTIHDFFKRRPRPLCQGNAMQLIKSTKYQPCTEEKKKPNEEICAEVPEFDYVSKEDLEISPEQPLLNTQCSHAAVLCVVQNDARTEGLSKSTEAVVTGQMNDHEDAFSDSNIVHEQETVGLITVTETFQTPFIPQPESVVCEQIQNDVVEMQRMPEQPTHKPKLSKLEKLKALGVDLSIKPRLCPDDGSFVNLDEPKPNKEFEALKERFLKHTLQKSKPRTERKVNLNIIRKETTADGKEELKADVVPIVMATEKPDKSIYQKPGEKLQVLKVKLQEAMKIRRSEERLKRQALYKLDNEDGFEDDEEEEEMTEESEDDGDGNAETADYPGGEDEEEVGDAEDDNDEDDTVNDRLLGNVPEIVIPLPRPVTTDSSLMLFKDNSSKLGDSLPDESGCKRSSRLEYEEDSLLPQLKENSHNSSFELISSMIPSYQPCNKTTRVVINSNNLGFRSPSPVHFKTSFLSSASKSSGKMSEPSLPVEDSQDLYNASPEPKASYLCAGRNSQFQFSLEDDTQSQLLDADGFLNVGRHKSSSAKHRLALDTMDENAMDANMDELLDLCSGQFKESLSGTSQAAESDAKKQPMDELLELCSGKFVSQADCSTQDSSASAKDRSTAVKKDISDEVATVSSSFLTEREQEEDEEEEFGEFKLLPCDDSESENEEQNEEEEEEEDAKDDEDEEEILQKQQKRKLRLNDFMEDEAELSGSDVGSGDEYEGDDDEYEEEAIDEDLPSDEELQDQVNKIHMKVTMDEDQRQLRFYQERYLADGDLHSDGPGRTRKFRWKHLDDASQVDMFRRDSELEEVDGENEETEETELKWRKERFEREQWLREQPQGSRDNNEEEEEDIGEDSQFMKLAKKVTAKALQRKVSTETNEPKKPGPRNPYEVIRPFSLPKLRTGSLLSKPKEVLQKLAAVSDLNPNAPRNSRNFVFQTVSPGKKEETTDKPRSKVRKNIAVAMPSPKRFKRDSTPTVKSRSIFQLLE
His6-Claspin, sequence (chain, as listed by the source): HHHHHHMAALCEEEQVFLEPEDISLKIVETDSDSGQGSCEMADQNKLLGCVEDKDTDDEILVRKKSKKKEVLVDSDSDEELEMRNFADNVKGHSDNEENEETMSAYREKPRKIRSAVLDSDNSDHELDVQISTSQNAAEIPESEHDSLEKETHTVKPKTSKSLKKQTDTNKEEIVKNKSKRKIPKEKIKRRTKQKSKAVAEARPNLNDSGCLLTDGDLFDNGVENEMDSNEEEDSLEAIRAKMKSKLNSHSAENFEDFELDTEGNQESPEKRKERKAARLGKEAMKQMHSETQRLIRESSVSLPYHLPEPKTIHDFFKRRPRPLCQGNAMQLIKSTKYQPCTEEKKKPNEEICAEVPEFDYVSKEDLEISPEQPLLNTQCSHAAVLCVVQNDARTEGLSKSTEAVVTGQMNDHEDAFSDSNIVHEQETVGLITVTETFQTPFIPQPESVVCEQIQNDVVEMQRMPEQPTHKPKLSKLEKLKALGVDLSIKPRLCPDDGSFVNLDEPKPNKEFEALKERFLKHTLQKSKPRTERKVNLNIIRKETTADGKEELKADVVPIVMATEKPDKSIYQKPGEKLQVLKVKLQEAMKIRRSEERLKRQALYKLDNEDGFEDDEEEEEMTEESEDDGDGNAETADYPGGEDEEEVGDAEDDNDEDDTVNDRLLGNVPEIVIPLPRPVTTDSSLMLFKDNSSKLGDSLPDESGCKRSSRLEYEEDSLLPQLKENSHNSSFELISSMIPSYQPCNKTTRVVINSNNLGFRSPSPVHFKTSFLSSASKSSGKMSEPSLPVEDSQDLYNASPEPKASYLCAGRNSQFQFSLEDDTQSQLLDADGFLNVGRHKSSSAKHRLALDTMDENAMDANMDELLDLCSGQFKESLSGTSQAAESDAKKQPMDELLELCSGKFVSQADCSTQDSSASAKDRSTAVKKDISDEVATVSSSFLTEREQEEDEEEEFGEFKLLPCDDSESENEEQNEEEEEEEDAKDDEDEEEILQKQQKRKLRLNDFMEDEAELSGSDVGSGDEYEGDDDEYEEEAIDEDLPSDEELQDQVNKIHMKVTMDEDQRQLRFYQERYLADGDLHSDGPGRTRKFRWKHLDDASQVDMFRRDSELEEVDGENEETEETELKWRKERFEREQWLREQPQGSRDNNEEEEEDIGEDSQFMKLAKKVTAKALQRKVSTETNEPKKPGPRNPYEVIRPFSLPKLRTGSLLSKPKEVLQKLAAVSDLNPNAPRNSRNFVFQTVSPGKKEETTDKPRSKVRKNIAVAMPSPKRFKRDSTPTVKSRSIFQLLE

B1: Xchk1-WT-GST-His6 (protein)
chain: MAVPFVEDWDLVQTLGEGAYGEVQLAVNRKTEEAVAVKIVDMTRAADCPENIKKEICINRMLSHTNIVRFYGHRREGNIQYLFLEYCRGGELFDRIEPDVGMPEQDAQKFFQQLIAGVEYLHSIGITHRDIKPENLLLDERDQLKISDFGLATVFRHNGKERLLNKMCGTLPYVAPELIKSRAFHADPVDVWSCGIVLTAMLAGELPWDQPNEVCQEYCDWKEKNHYLTPWKKISATPLALLCKMLTENPQSRITIPDIKKDRWFTEIIKKGLKRSRVISGGSSDSSVLCKQIRSDIDISHFSHSEEKTALSSTQPEPRTALATWDSNSSYIDNLVQGKGISFSQPACPDNMLLNSQLIGTPGSSQNVWQRLVKRMTRFFTKVNAESSYSNLMDTCEKMGYVLKKSCANEVTLSTTDRRNNKLIFKVNLVEMEDRILLDFRLSKGDGLEFKRHFLKIKKKMDAVVAVQKVLPDTM[omitted - about 200 residues]
On to B1, for which, in the data set with His6-Claspin, the “checkpoint-dependent phosphorylation of recombinant Xchk1 re-isolated from egg extract” value is reported as “the addition of recombinant His6-Claspin to Claspin-depleted extracts completely restored the phosphorylation of Xchk1”. In data set [1], the “checkpoint-dependent phosphorylation of recombinant Xchk1 re-isolated from egg extract” value is given as “The checkpoint-dependent phosphorylation of Xchk1 in Claspin-depleted extracts was almost completely abolished in comparison with mock-depleted extracts” and the “kinase activity of recombinant Xchk1 isolated from egg extract (substrate GST-Cdc25(254-316)-WT)” value was “recombinant Xchk1 was activated about 4-fold in extracts containing poly(dA)70-poly(dT)70. This activation was strongly reduced in Claspin-depleted extracts”.
